Experimental data taken from paper PMC9911399, “Two distinct binding modes provide the RNA-binding protein RbFox with extraordinary sequence specificity”.
Positions count from the first letter of the chain named. Some of the results follow.

T1: RBFOX1 RRM RbFoxmut (Fox-RRM*) (Homo sapiens, UniProt Q9NWB1 109-208, R118D;E147R;N151S;E152T)
T1 sequence: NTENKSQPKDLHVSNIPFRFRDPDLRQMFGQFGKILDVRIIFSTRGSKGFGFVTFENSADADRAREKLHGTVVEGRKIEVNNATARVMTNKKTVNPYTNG

B1: UACACAA (DNA:RNA)
RNA: GGGAGACCGGAAUUCAGAUUGUCCUACACAAUUAAAUCCCGUCGUAGCCACCA
DNA 1: CAATCTGAATTCCGGTCTCCC
DNA 2: TGGTGGCTACGACGGGATT
B2: CCCUGGU (DNA:RNA)
RNA: B1 RNA with U25C, A26C, A28U, C29G, A30G, A31U
DNA 1: CAATCTGAATTCCGGTCTCCC
DNA 2: TGGTGGCTACGACGGGATT
B3: GGUAGUU (DNA:RNA)
RNA: B1 RNA with U25G, A26G, C27U, C29G, A30U, A31U
DNA 1: CAATCTGAATTCCGGTCTCCC
DNA 2: TGGTGGCTACGACGGGATT
B4: CGCGCAC (DNA:RNA)
RNA: B1 RNA with U25C, A26G, A28G, A31C
DNA 1: CAATCTGAATTCCGGTCTCCC
DNA 2: TGGTGGCTACGACGGGATT
B5: UGAACCG (DNA:RNA)
RNA: B1 RNA with A26G, C27A, A30C, A31G
DNA 1: CAATCTGAATTCCGGTCTCCC
DNA 2: TGGTGGCTACGACGGGATT
B6: GAGUGCG (DNA:RNA)
RNA: B1 RNA with U25G, C27G, A28U, C29G, A30C, A31G
DNA 1: CAATCTGAATTCCGGTCTCCC
DNA 2: TGGTGGCTACGACGGGATT
B7: GGCAUAC (DNA:RNA)
RNA: B1 RNA with U25G, A26G, C29U, A31C
DNA 1: CAATCTGAATTCCGGTCTCCC
DNA 2: TGGTGGCTACGACGGGATT
B8: UCCGCCC (DNA:RNA)
RNA: B1 RNA with A26C, A28G, A30C, A31C
DNA 1: CAATCTGAATTCCGGTCTCCC
DNA 2: TGGTGGCTACGACGGGATT
B9: AGCACCU (DNA:RNA)
RNA: B1 RNA with U25A, A26G, A30C, A31U
DNA 1: CAATCTGAATTCCGGTCTCCC
DNA 2: TGGTGGCTACGACGGGATT
B10: CAUAAAC (DNA:RNA)
RNA: B1 RNA with U25C, C27U, C29A, A31C
DNA 1: CAATCTGAATTCCGGTCTCCC
DNA 2: TGGTGGCTACGACGGGATT
B11: ACCAUCC (DNA:RNA)
RNA: B1 RNA with U25A, A26C, C29U, A30C, A31C
DNA 1: CAATCTGAATTCCGGTCTCCC
DNA 2: TGGTGGCTACGACGGGATT
B12: ACGCGUC (DNA:RNA)
RNA: GGGAGACCGGAAUUCAGAUUGUCCACGCGUCUUAAAUCCCGUCGUAGCCACCA
DNA 1: CAATCTGAATTCCGGTCTCCC
DNA 2: TGGTGGCTACGACGGGATT
B13: AGCCUUA (DNA:RNA)
RNA: B12 RNA with C26G, G27C, G29U, C31A
DNA 1: CAATCTGAATTCCGGTCTCCC
DNA 2: TGGTGGCTACGACGGGATT
B14: AUCAGCA (DNA:RNA)
RNA: B1 RNA with U25A, A26U, C29G, A30C
DNA 1: CAATCTGAATTCCGGTCTCCC
DNA 2: TGGTGGCTACGACGGGATT
B15: CACCGUC (DNA:RNA)
RNA: B12 RNA with A25C, C26A, G27C
DNA 1: CAATCTGAATTCCGGTCTCCC
DNA 2: TGGTGGCTACGACGGGATT
B16: AUUCCGG (DNA:RNA)
RNA: B12 RNA with C26U, G27U, G29C, U30G, C31G
DNA 1: CAATCTGAATTCCGGTCTCCC
DNA 2: TGGTGGCTACGACGGGATT
B17: CCCUCGU (DNA:RNA)
RNA: B1 RNA with U25C, A26C, A28U, A30G, A31U
DNA 1: CAATCTGAATTCCGGTCTCCC
DNA 2: TGGTGGCTACGACGGGATT
B18: AAUACUA (DNA:RNA)
RNA: B1 RNA with U25A, C27U, A30U
DNA 1: CAATCTGAATTCCGGTCTCCC
DNA 2: TGGTGGCTACGACGGGATT
B19: CUGACAG (DNA:RNA)
RNA: B1 RNA with U25C, A26U, C27G, A31G
DNA 1: CAATCTGAATTCCGGTCTCCC
DNA 2: TGGTGGCTACGACGGGATT
B20: CUAGCGG (DNA:RNA)
RNA: B1 RNA with U25C, A26U, C27A, A28G, A30G, A31G
DNA 1: CAATCTGAATTCCGGTCTCCC
DNA 2: TGGTGGCTACGACGGGATT
B21: CACUAUA (DNA:RNA)
RNA: B1 RNA with U25C, A28U, C29A, A30U
DNA 1: CAATCTGAATTCCGGTCTCCC
DNA 2: TGGTGGCTACGACGGGATT
B22: AGGUUUG (DNA:RNA)
RNA: B12 RNA with C26G, C28U, G29U, C31G
DNA 1: CAATCTGAATTCCGGTCTCCC
DNA 2: TGGTGGCTACGACGGGATT
B23: UUGAUGU (DNA:RNA)
RNA: B1 RNA with A26U, C27G, C29U, A30G, A31U
DNA 1: CAATCTGAATTCCGGTCTCCC
DNA 2: TGGTGGCTACGACGGGATT
B24: UUAUGAU (DNA:RNA)
RNA: B1 RNA with A26U, C27A, A28U, C29G, A31U
DNA 1: CAATCTGAATTCCGGTCTCCC
DNA 2: TGGTGGCTACGACGGGATT
B25: AGCUCUA (DNA:RNA)
RNA: B1 RNA with U25A, A26G, A28U, A30U
DNA 1: CAATCTGAATTCCGGTCTCCC
DNA 2: TGGTGGCTACGACGGGATT
B26: GAAGAAU (DNA:RNA)
RNA: B1 RNA with U25G, C27A, A28G, C29A, A31U
DNA 1: CAATCTGAATTCCGGTCTCCC
DNA 2: TGGTGGCTACGACGGGATT
B27: UAAGUAC (DNA:RNA)
RNA: B1 RNA with C27A, A28G, C29U, A31C
DNA 1: CAATCTGAATTCCGGTCTCCC
DNA 2: TGGTGGCTACGACGGGATT
B28: CACGUGA (DNA:RNA)
RNA: B1 RNA with U25C, A28G, C29U, A30G
DNA 1: CAATCTGAATTCCGGTCTCCC
DNA 2: TGGTGGCTACGACGGGATT
B29: CAAUAAG (DNA:RNA)
RNA: B1 RNA with U25C, C27A, A28U, C29A, A31G
DNA 1: CAATCTGAATTCCGGTCTCCC
DNA 2: TGGTGGCTACGACGGGATT
B30: GACCGUA (DNA:RNA)
RNA: B12 RNA with A25G, C26A, G27C, C31A
DNA 1: CAATCTGAATTCCGGTCTCCC
DNA 2: TGGTGGCTACGACGGGATT
B31: UCACCAC (DNA:RNA)
RNA: B12 RNA with A25U, G27A, G29C, U30A
DNA 1: CAATCTGAATTCCGGTCTCCC
DNA 2: TGGTGGCTACGACGGGATT

target: T1, RBFOX1 RRM RbFoxmut (Fox-RRM*); assay: EMSA; HiTS-Eq, 1 nM pool, 10 min; buffer printed only for the single-RNA assays: 10 mM Tris pH 7.5, 150 mM NaCl, 3.4 mM EDTA, 0.001% NP-40, 30 C; details: tags: His6 N-terminal (pET28a); label: 5' 32P
In short: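 Relative association constants, normalised to the cognate motif, were derived by comparing read counts of each RNA species with those of the control reaction. The RNA sequenced was the free fraction, separated by 8% native PAGE after a 10 min equilibration in 50 µL of 1 nM 5′-radiolabelled RNA (7 randomized nucleotides) with increasing concentrations of purified wild-type or mutant RbFox RRM.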

Row | Binder | binding signal
1 | B1 | 0.0712 KA relative to UGCAUGU
2 | B2 | 0.127 KA relative to UGCAUGU
3 | B3 | 0.0991 KA relative to UGCAUGU
4 | B4 | 0.0912 KA relative to UGCAUGU
5 | B5 | 0.0911 KA relative to UGCAUGU
6 | B6 | 0.168 KA relative to UGCAUGU
7 | B7 | 0.11 KA relative to UGCAUGU
8 | B8 | 0.0339 KA relative to UGCAUGU
9 | B9 | 0.072 KA relative to UGCAUGU
10 | B10 | 0.0964 KA relative to UGCAUGU
11 | B11 | 0.044 KA relative to UGCAUGU
12 | B12 | 0.0969 KA relative to UGCAUGU
13 | B13 | 0.115 KA relative to UGCAUGU
14 | B14 | 0.111 KA relative to UGCAUGU
15 | B15 | 0.0639 KA relative to UGCAUGU
16 | B16 | 0.0577 KA relative to UGCAUGU

Row | Binder | binding signal
17 | B17 | 0.109 KA relative to UGCAUGU
18 | B18 | 0.111 KA relative to UGCAUGU
19 | B19 | 0.0519 KA relative to UGCAUGU
20 | B20 | 0.0785 KA relative to UGCAUGU
21 | B21 | 0.123 KA relative to UGCAUGU
22 | B22 | 0.525 KA relative to UGCAUGU
23 | B23 | 0.127 KA relative to UGCAUGU
24 | B24 | 0.0757 KA relative to UGCAUGU
25 | B25 | 0.075 KA relative to UGCAUGU
26 | B26 | 0.0873 KA relative to UGCAUGU
27 | B27 | 0.0736 KA relative to UGCAUGU
28 | B28 | 0.101 KA relative to UGCAUGU
29 | B29 | 0.11 KA relative to UGCAUGU
30 | B30 | 0.103 KA relative to UGCAUGU
31 | B31 | 0.0709 KA relative to UGCAUGU
